Laboratory results as given in patent publication US20150197568A1 (AstraZeneca / MedImmune, published 2015).
Several values for one entry are separate records, joined by “and”; a condition that tells them apart may be missing. Identical values can stand only once.

B1: Mature human IL-6 (ligand)
chain: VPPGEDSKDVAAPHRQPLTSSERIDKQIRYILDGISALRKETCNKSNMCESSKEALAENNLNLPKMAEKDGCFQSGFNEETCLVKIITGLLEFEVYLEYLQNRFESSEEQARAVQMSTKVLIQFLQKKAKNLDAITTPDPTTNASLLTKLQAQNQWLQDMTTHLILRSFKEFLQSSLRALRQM
notes: also called wt IL-6; wild type human IL-6
B2: E200W mutant IL-6 (ligand)
chain: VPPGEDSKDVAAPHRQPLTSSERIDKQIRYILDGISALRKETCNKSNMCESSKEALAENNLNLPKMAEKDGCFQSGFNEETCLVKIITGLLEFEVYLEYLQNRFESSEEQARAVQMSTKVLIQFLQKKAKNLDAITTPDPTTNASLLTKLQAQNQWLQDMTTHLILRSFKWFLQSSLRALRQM
notes: As for F102E mutant: made from pT7flagHISIL-6
B3: F102E mutant IL-6 (ligand)
chain: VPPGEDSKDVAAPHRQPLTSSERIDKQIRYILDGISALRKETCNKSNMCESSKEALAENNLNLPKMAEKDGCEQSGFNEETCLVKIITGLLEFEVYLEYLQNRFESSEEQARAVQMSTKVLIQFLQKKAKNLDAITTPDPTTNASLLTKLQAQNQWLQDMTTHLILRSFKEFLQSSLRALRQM
notes: also called Phe102Glu mutant human IL-6
B4: F106E mutant IL-6 (ligand)
chain: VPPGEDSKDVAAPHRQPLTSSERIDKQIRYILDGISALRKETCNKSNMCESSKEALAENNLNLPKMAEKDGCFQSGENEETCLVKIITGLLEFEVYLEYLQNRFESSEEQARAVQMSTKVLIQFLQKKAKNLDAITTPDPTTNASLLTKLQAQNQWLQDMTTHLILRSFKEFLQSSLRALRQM
notes: as for B2
B5: Q211A mutant IL-6 (ligand)
chain: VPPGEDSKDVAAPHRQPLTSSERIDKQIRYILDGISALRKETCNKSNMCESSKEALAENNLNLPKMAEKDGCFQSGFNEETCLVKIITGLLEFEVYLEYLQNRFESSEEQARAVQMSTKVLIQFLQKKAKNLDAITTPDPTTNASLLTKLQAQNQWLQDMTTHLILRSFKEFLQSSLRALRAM
notes: as for B2
B6: R58E mutant IL-6 (ligand)
chain: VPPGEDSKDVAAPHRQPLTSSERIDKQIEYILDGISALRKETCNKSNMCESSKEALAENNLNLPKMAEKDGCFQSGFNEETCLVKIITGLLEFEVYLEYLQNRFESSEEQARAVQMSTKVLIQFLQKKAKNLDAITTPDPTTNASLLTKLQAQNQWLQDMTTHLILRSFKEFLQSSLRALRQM
notes: as for B2
B7: R207L mutant IL-6 (ligand)
chain: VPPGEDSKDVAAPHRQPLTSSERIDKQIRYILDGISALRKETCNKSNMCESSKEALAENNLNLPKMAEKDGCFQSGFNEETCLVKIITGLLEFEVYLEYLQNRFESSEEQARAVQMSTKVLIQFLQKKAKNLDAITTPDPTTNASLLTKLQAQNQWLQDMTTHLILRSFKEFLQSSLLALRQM
notes: as for B2
B8: S204E mutant IL-6 (ligand)
chain: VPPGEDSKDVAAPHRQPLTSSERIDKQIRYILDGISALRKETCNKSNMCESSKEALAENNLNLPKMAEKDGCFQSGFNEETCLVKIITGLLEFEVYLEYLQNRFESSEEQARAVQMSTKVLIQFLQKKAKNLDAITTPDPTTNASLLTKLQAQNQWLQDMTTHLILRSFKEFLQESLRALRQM
notes: As for F102E mutant: made from pT7flagHISIL-6; also called Ser204Glu mutant human IL-6
B9: R207E mutant IL-6 (ligand)
chain: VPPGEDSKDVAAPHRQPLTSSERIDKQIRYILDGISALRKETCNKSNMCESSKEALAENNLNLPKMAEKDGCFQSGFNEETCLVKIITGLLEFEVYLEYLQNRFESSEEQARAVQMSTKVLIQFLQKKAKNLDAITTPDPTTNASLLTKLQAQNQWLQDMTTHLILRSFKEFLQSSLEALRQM
notes: As for F102E mutant: made from pT7flagHISIL-6; also called Arg207Glu mutant human IL-6

These binders were tested against T1, B-E8 (assay: DELFIA competition; inhibitor titrated against 0.15 nM biotinylated human IL-6 on coated antibody).
T1 construct: also called elsilimomab; murine anti-IL-6 antibody
Excerpt: (§1) The epitope of Antibody 18 (GL) was compared with the epitopes of two anti-human IL-6 antibodies B-E8 and cCLB8. Both these antibodies are known to inhibit the binding of IL-6 to IL-6Ra and have been investigated as potential therapeutic agents. To enable comparisons of the epitopes of the three antibodies, a panel of IL-6 mutants were constructed that each contained a single amino acid mutation compared to the wild-type (wt) sequence. The binding of these mutants to the different antibodies was then evaluated in biochemical competition assays. These experiments were based on the biochemical competition assay described in Example 1.6, with changes in the concentrations of antibodies and IL-6 variants where required. Briefly, antibodies were coated on to the surface of a 96-well Nunc Maxisorp immunoassay plate at a concentration of either 2 nM (Antibody 18) or 4 nM (B-E8 and cCLB8) in PBS and incubated overnight at 4° C. After the surface of the wells was blocked using 3% (w/v) BSA in PBS, dilutions of the inhibitors at a concentration range of 200 nM to 10 pM mixed with biotinylated human IL-6 at a final concentration of 0.15 nM were added to the antibody coated wells and allowed to bind. Binding of the biotinylated IL-6 to the antibodies was measured using Europium labelled streptavidin.
(§2) By comparing the IC₅₀ values obtained for the mutants to unlabelled wild type human IL-6, a ratio of potency could be established for each mutant. Then, by comparing these ratios across the different antibodies, the effects of the individual mutations on the binding of the antibody to the IL-6 molecule could be evaluated. Typical results of these experiments are presented in Table 10 with the experiments being repeated on 2 further occasions.

Row | Binder | IC50
1 | B1 | 0.276 nM and 0.265 nM and 0.198 nM and 0.248 nM
2 | B2 | 0.568 nM
3 | B3 | 15.8 nM
4 | B4 | 3.31 nM
5 | B5 | 0.851 nM
6 | B6 | 15.7 nM
7 | B7 | 94.1 nM
8 | B8 | 0.483 nM

Each binder was assayed against T2, Antibody 18 (GL) IgG in the same assay as above.
T2 construct: Germlined IgG1/kappa; also called Ab 18
T2 sequence (VH, as listed by the source, chain 1 of 2): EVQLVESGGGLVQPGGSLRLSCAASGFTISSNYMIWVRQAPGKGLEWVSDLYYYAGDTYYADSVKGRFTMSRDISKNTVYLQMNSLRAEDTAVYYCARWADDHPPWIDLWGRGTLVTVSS
T2 sequence (VL, as listed by the source, chain 2 of 2): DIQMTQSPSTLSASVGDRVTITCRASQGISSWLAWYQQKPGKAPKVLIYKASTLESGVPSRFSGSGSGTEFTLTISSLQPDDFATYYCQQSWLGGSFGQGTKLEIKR
Excerpt: as §1, §2

Row | Binder | IC50 | binding result
9 | B1 | 0.27 nM and 0.205 nM and 0.239 nM and 0.245 nM | –
10 | B2 | 0.522 nM | –
11 | B3 | 84.1 nM | –
12 | B4 | 1.43 nM | –
13 | B5 | 0.307 nM | –
14 | B6 | 0.479 nM | –
15 | B9 | – | no binding (tested: 200 nM)
16 | B7 | 131 nM | –
17 | B8 | 25.7 nM | –

What follows are binders tested against T3, CNTO-328 in the same assay as above.
T3 construct: also called cCLB8; chimeric human-mouse anti-IL-6 antibody
Excerpt: as §1, §2

Row | Binder | IC50
18 | B1 | 0.926 nM and 0.693 nM and 1.03 nM and 0.702 nM
19 | B2 | 2.68 nM
20 | B3 | 2.8 nM
21 | B5 | 110 nM
22 | B6 | 1.73 nM
23 | B9 | 5.13 nM
24 | B7 | 1.51 nM
25 | B8 | 1.9 nM

Each binder was assayed against T1, B-E8 (assay: IC50 ratio to wt IL-6, DELFIA competition).
Excerpt: as §1, §2

Row | Binder | Potency Ratio
26 | B2 | 2.29
27 | B3 | 57.2
28 | B4 | 12
29 | B5 | 3.21
30 | B6 | 79.1
31 | B7 | 379
32 | B8 | 2.43

Each binder was assayed against T2, Antibody 18 (GL) IgG (assay: IC50 ratio to wt IL-6, DELFIA competition).
Excerpt: as §1, §2

Row | Binder | Potency Ratio
33 | B2 | 2.13
34 | B4 | 5.28
35 | B5 | 1.5
36 | B6 | 2.01
37 | B7 | 535
38 | B8 | 108

Each binder was assayed against T3, CNTO-328 (assay: IC50 ratio to wt IL-6, DELFIA competition).
Excerpt: as §1, §2

Row | Binder | Potency Ratio
39 | B2 | 3.82
40 | B3 | 3.02
41 | B5 | 158
42 | B6 | 1.68
43 | B9 | 7.4
44 | B7 | 2.15
45 | B8 | 1.85

What follows are binders tested against T1, B-E8 (assay: IC50 ratio to wt IL-6 (the reference itself), DELFIA competition).
Excerpt: as §1, §2

Row | Binder | Potency Ratio
46 | B1 | 1

Each binder was assayed against T2, Antibody 18 (GL) IgG in the same assay as above.
Excerpt: as §1, §2

Row | Binder | Potency Ratio
47 | B1 | 1

These binders were tested against T3, CNTO-328 in the same assay as above.
Excerpt: as §1, §2

Row | Binder | Potency Ratio
48 | B1 | 1
